Several values for one entry are separate records, joined by “and”; a condition that tells them apart may be missing. Identical values can stand only once. Screen size: about 150,000 compounds; about 6,500 (4.3%) were called active. About 12% were inconclusive and are not listed. Calls come from the whole dose curve; as a rule, active = well fitted inhibition curve with a large enough effect (not every such curve was filed as active); inconclusive = small, poorly fitted or top-dose-only effect, or another doubt; inactive = no such curve, though single readings can be large or run the other way. This is a selection; strong and weak results do not stand in their true shares. Some compounds were tested as several samples or in several runs, with calls that do not always agree.
Biological target: 15-hydroxyprostaglandin dehydrogenase [NAD(+)] (Homo sapiens) (UniProt P15428)
Sequence of UniProt P15428 (P15428 whole entry, looked up): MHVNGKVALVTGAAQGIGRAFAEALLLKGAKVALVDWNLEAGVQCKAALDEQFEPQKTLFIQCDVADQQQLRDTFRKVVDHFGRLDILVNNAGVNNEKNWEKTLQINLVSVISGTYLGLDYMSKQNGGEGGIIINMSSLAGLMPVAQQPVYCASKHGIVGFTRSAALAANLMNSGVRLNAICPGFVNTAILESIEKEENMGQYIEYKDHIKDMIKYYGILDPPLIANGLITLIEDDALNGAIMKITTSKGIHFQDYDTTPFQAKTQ
Experiment: qHTS Assay for Inhibitors of HPGD (15-Hydroxyprostaglandin Dehydrogenase)
Conditions: purified HPGD, NADH fluorescence kinetic, PGE2 substrate; activity change, negative = inhibition: active compounds read low
Outline: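 NADH formation kinetics: reaction with 30 uM PGE2 and 1 mM NAD+ (final), 20 nM enzyme, Tris-HCl pH 8 with Tween 20, after 15 min compound preincubation at room temperature. Fluorescence change, last versus first of five reads.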
% is set by controls: 0 for no effect and ±100 for the full control effect; potency is the fitted concentration of half-maximal effect.

Row | SMILES | Potency | activity change, negative = inhibition
1 | O=C(Nc1nccs1)c1ccc(COc2ccc(F)cc2)o1 | active: 14.1 µM | 
2 | Cc1cc2nc3c(=O)[nH]c(=O)nc-3n(CC(O)C(O)C(O)CO)c2cc1C (stereo unspecified) |  | inactive: -13.8% [middle of 4 runs]
3 | COc1ccc(/C=C2/CCc3ccccc3C2=O)cc1OC |  | inactive: -15.8%
4 | COc1ccc(/C=C2\SC(=O)NC2=S)cc1OC | active: 15.8 µM | 
5 | CCOC(=O)c1c(C)nc2sc3c(c2c1-c1ccc(OC)cc1)NC(c1ccccc1)NC3=O (stereo unspecified) |  | inactive: 121%
6 | CN(C)c1ccc(/C=C2/C(=O)Nc3ccccc32)cc1 |  | inactive: -24%
7 | CC(=O)N1[C@H](Cc2ccccc2)C=C[C@]1(C)C(=O)NCc1ccc(C)o1 |  | inactive: -12.5%
8 | COc1ccc(/C=C2\CCCC3C2=NN(C(=O)c2scnc2C)C3c2ccc(OC)c(OC)c2)cc1OC (stereo unspecified) |  | inactive: 95.9%
9 | N#C/C(=C\c1ccco1)c1nc2ccccc2s1 |  | inactive: -19.1%
10 | CCCNC(C)C(=O)Nc1ccccc1C (stereo unspecified) |  | inactive: 1.15%
11 | CCCCC[C@H](O)/C=C/[C@@H]1[C@@H](C/C=C\CCCC(=O)O)[C@@H](O)C[C@H]1O |  | inactive: -7.67%
12 | CCN1/C(=C\C(C)=O)Sc2ccc(OC)cc21 |  | inactive: -4.3%
13 | Cc1ccc2c(c1)C1C=CCC1C(C(=O)O)N2 (stereo unspecified) | active: 20 µM | 
14 | COc1ccc(OC)c(-n2cnc3cc(C(=O)NCCCN4CCOCC4)ccc32)c1 | active: 25.1 µM | 
15 | Cc1cc(CNC(=O)C(C)Cc2ccccc2)nn1C (stereo unspecified) |  | inactive: -16.8%
16 | c1ccc(Cc2nnc(N3CCOCC3)c3ccccc23)cc1 | active: 25.1 µM | 
17 | CCCN1C2=C(C(=O)CC(C)(C)C2)C(c2ccc(F)cc2)C2=C1c1ccccc1C2=O (stereo unspecified) | active: 35.5 µM | 
18 | COc1cc(OC)cc(C(=O)NCCSCc2ccco2)c1 | active: 20 µM | 
19 | Cc1ccc(C)c(NC(=O)/C(C#N)=C/c2cn(CC(=O)NCc3ccco3)c3ccccc23)c1 |  | inactive: 56%
20 | S=c1[nH]nc(COc2ccccc2)n1C1CCCCC1 | active: 22.4 µM | 
21 | Cc1cccc(/C=C/c2ccccc2)n1 |  | inactive: -4.59%
22 | Oc1c(I)cc(I)c2cccnc12 |  | inactive: -15.4%
23 | Cc1ccc(NC(=O)N2CCC(c3nc4c(nnn4Cc4c(F)cccc4Cl)c(=O)[nH]3)CC2)cc1 | active: 12.6 µM | 
24 | Cn1nnnc1SCC1=C(C(=O)O)N2C(=O)[C@@H](NC(=O)[C@H](O)c3ccccc3)[C@H]2SC1 |  | inactive: -16.4%
25 | O=C(O)CC[C@@H](C(=O)O)N1C(=O)c2ccccc2C1=O |  | inactive: -4.44%
26 | Nc1nc(SCc2ccc([N+](=O)[O-])cc2)c2ncn(C3OC(CO)C(O)C3O)c2n1 (stereo unspecified) |  | inactive: -23.1%

Row | SMILES | Potency | activity change, negative = inhibition
27 | CC1=C(/C=C/C(C)=C/C=C/C(C)=C/C(=O)Nc2ccc(O)cc2)C(C)(C)CCC1 |  | inactive: -12.1% and inactive: -9.23% and inactive: -9.18%
28 | O=C1C2C3C=CC(CC3)C2C(=O)N1/N=C/c1ccc(O)cc1 (stereo unspecified) | active: 28.2 µM | 
29 | CN(C)[C@H]1C(=O)C(C(=O)NCN2CCCC2)=C(O)[C@]2(O)C(=O)C3=C(O)c4c(O)cccc4[C@@](C)(O)[C@H]3C[C@@H]12 |  | inactive: -20.4%
30 | COc1ccc(C(=O)OCCNC(=O)c2c(Cl)nc3ccccn23)cc1 | active: 25.1 µM | 
31 | NC(=O)c1cc[n+](CC2=C(C(=O)O)N3C(=O)[C@@H](NC(=O)C(c4ccccc4)S(=O)(=O)[O-])[C@H]3SC2)cc1 (stereo partly specified) |  | inactive: -14.4%
32 | NCC(O)c1ccc(O)c(O)c1 (stereo unspecified) |  | inactive: 4.61%
33 | Cn1c(Cc2ccccc2)nnc1SCC(=O)c1ccc(Br)s1 | active: 28.2 µM | 
34 | O=C(CCCCCN1C(=O)CCC1=O)Nc1ccc2c(c1)OCO2 |  | inactive: -0.42%
35 | Cc1cccc(Nc2cc(Cl)nc(SCC(=O)O)n2)c1C |  | inactive: -21.6% and inactive: -5.55% and inactive: -14.5%
36 | O=C(Nc1cccc2nsnc12)c1cccs1 |  | inactive: -23.3%
37 | Cc1nn(-c2ccccc2)c(N2CCCC2)c1/C=N/n1cnc2scc(-c3ccccc3)c2c1=O |  | inactive: 402%
38 | Cn1c(N)c(C(=O)Nc2ccc3ccccc3c2)sc1=S | active: 8.91 µM | 
39 | CCN(CC)CCCC(C)Nc1c2ccc(Cl)cc2nc2ccc(OC)cc12 (stereo unspecified) |  | inactive: -22%
40 | COc1ccc(/C=C/c2cc(OC)cc(=O)o2)cc1 |  | inactive: -17%
41 | COc1cc(C=O)ccc1O |  | inactive: -15.1%
42 | O=C(CSc1nnc2ccccn12)c1ccccc1 |  | inactive: 78.8%
43 | O=Cc1ccc(Sc2nnc(-c3ccccc3)o2)c([N+](=O)[O-])c1 | active: 14.1 µM | 
44 | CC1CCN(C(=O)/C=C/c2ccc(C(C)(C)C)cc2)CC1 | active: 15.8 µM | 
45 | CCCN=C(C)c1c(-c2ccccc2)[nH]n(-c2nc3ccccc3s2)c1=O |  | inactive: 156%
46 | O=C(c1ccc(CSc2nc3ccncc3[nH]2)cc1)N1CCCCC1 | active: 0.562 µM | 
47 | COc1ccc(/C=N/n2cnnc2)cc1COc1ccccn1 |  | inactive: -13.3%
48 | Cn1nnc2cc(C(=O)N3CCSCC3)ccc21 | active: 1.58 µM | 
49 | Cc1ccc(O)c(-c2cc(C(=O)NCc3ccncc3)[nH]n2)c1 | active: 5.01 µM | 
50 | CN(C)c1ccc(O)c2c1CC1CC3[C@@H](N(C)C)C(=O)C(C(N)=O)=C(O)[C@]3(O)C(=O)C1=C2O (stereo partly specified) |  | inactive: -12.3%
51 | CCOCCn1c(=NC(=O)/C=C/c2ccccc2Cl)sc2cc(NC(C)=O)ccc21 |  | inactive: 79.2%

From PubChem BioAssay AID894 (National Center for Advancing Translational Sciences (NCATS), 2007)
